Measurements reported in PMC4336329 (PLoS ONE, 2015).
The whole screen tested about 310,000 compounds, of which about 2,200 (0.71%) showed an effect of 50% or more. The effect is printed as a negative number. This is one part of the list.

Each compound was assayed against human ether-à-go-go-related gene (hERG) potassium channel (human, UniProt Q12809) (assay: primary screen, population patch clamp on CHO cells stably expressing hERG).
Chain of human ether-à-go-go-related gene (hERG) potassium channel (Q12809 whole entry, looked up): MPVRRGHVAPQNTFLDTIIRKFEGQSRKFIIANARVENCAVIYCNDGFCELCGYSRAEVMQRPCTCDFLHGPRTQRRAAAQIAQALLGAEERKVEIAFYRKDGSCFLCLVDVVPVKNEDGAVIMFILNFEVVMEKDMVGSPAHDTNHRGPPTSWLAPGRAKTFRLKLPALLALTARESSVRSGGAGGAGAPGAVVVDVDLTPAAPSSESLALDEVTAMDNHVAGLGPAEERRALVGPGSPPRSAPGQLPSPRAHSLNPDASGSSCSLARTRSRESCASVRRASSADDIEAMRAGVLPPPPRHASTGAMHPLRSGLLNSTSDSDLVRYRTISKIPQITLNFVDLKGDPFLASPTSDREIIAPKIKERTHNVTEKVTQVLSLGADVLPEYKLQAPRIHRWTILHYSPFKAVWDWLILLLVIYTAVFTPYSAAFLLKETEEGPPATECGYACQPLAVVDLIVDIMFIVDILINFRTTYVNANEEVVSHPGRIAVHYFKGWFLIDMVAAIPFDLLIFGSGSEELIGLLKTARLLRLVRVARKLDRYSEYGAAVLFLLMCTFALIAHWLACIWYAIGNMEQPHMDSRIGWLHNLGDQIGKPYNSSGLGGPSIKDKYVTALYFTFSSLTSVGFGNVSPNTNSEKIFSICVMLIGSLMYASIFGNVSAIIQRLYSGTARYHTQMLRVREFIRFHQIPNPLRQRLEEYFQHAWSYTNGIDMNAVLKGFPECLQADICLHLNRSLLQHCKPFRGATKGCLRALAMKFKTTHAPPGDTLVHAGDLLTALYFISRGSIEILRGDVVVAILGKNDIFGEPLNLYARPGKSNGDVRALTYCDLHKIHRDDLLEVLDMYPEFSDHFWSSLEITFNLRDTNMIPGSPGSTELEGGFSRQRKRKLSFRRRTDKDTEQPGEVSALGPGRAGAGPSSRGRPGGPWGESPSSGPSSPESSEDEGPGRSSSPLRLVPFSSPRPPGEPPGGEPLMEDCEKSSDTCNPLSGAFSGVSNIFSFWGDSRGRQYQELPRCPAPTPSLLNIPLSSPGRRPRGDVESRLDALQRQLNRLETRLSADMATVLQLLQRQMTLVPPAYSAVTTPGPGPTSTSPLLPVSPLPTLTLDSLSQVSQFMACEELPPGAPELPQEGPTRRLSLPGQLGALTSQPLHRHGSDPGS

Row | Compound | hERG current change (%, negative = inhibition) at 1uM
1 | Cc1ccc(Oc2ccc(Cl)cc2N)cc1 | 13.6%
2 | COc1ccccc1CNCC(=O)Nc1ccc(C#N)cc1.O=C(O)C(=O)O | 8.33%
3 | Brc1ccc(/C=C/C=N/Nc2nc3ccccc3s2)cc1 | 3.23%
4 | CC(C)C1Oc2ccccc2N(CC(=O)N(Cc2ccncc2)Cc2ccco2)C1=O (stereo not shown) | -19.4%
5 | Cn1nnnc1SCC(=O)NCc1ccccc1 | 4.51%
6 | COCCN(Cc1cc2cc(C)ccc2n2nnnc12)C(=S)Nc1ccccc1C | 17%
7 | O=S(=O)(NC1CCCCCC1)c1cccc2cccnc12 | 6.75%
8 | COc1ccc(N2C(=O)/C(=C/c3ccc([N+](=O)[O-])cc3)N=C2C)cc1 | 10.9%
9 | CCCOc1ccc(C(=O)CCCC(=O)c2ccc(OCCC)cc2)cc1 | 18.8%
10 | COc1ccc(Cc2nc3ccc(C(=O)NCC(C)(C)OC)cc3o2)cc1 | 16.4%
11 | Cc1ccc(C(=O)N2CCC(C(=O)Nc3cccc([N+](=O)[O-])c3)CC2)cc1 | -42.1%
12 | CCC[n+]1c2ccccc2cc2ccccc21.[I-] | 14%
13 | Cc1cccc(COc2ncnc3nc[nH]c23)c1 | 8.09%
14 | O=C(O)COc1ccccc1/C=N/Nc1ccc(S(=O)(=O)N2CCOCC2)cc1[N+](=O)[O-] | 14.5%
15 | CC(=O)c1cccc(OCc2cc(C(=O)N(C)CCc3ccccn3)no2)c1 | 0.0123%
16 | CCCCOC(=O)CSC1=C(C#N)C(c2cccnc2)C(C(=O)OCC)=C(c2ccccc2)N1 (stereo not shown) | -11.5%
17 | O=C(CNC(=O)c1ccc(F)cc1)N/N=C/c1cccnc1 | 7.62%
18 | CCN(CC)S(=O)(=O)c1ccc(N2CCOCC2)c(NC(=O)c2cccc(C#N)c2)c1 | -1.31%
19 | Cc1cc2cc(CNC(=O)c3ccc(S(=O)(=O)N4CCCCC4)cc3)ccc2n1C | 15.7%
20 | COc1ccc(-n2c(CN3CCN(c4ccccc4)CC3)nc3ccc([N+](=O)[O-])cc3c2=O)c(OC)c1 | 2.89%
21 | COc1cccc(C(=O)Nc2ccc3nc4n(c(=O)c3c2)CCCC4)c1 | -32.8%
22 | COc1cccc(NC(=S)N2c3ccccc3CC2C)c1 (stereo not shown) | 7.84%

Row | Compound | hERG current change (%, negative = inhibition) at 1uM
23 | Cc1nn(CC(=O)NCc2ccccn2)c(C)c1[N+](=O)[O-] | 0.675%
24 | O=C(O)CCNC(=O)c1ccc(NC(=O)C(c2ccccc2)c2ccccc2)cc1 | 17.5%
25 | COc1ccc(/C=C/C(=O)NCC(=O)N/N=C(/CCC(=O)O)c2ccccc2)cc1 | 2.51%
26 | CCc1ccc(OCC(=O)OC(C)C(=O)NC2CC2)cc1 (stereo not shown) | 3.93%
27 | COC(=O)C1=C(c2c(C)noc2C)C[C@@H]2CC[C@H]1N2C(=O)NC1CCCCC1 | 10%
28 | CCOC(=O)c1cc(CNC(=O)c2c(C)oc3c2CCCC3)c(C)o1 | 5.61%
29 | NC(N)=NS(=O)(=O)c1ccc(NC(=S)NC(=O)c2ccc(Br)cc2)cc1 | 7.76%
30 | COc1ccc(OC)c(-c2csc(N(Cc3ccco3)C(=O)c3ccco3)n2)c1 | 15.3%
31 | O=c1[nH][nH]cc1C=NCc1cccc(C(F)(F)F)c1 | 13.6%
32 | COc1ccc(CN2CCN(CCc3ccccc3)C(CCO)C2)c(O)c1 (stereo not shown) | -26.9%
33 | N#CC(Sc1ccccn1)c1ccc(Cl)cc1 (stereo not shown) | -2.94%
34 | COc1ccc(C(=O)N(C)C2CCCN(Cc3ccccc3F)C2)cc1OC (stereo not shown) | 10.2%
35 | COc1ccccc1NC(=O)COc1ccc(C(=O)NC2CCCc3ccccc32)cc1OC (stereo not shown) | 11%
36 | CCOC(=O)/C=c1\s/c(=C\c2ccc3cc(OC)ccc3c2)c(=O)n1CC(=O)NCC1CCCO1 (stereo not shown) | 12.6%
37 | Cc1cc(C)nc(N2CCC(C(=O)Nc3ccc4c(c3)CCC4)CC2)n1 | 16.3%
38 | O=C(CSc1nc(C2CC2)nc2c1cnn2-c1ccccc1)Nc1c[nH]c(=O)[nH]c1=O | 5.65%
39 | O=C1Nc2cc(C(=O)N3CCOCC3)ccc2S/C1=C\c1ccccc1 | 9.73%
40 | O=C1C2CC=C(Cl)CC2C(=O)N1CCC[n+]1ccccc1.[Br-] (stereo not shown) | -7.67%
41 | NNC(=O)CC1NCCN(Cc2ccccc2)C1=O (stereo not shown) | 14.4%
42 | CCCCC1CCCOC(C(=O)NCCNCCO)(C(F)(F)F)C1 (stereo not shown) | 13.7%
43 | CCOc1cc(CNCCc2ccccc2)ccc1OCC(=O)NC(C)(C)C.Cl | 9.83%
44 | CCCC(=NCc1ccccc1)C1=C(O)C(C(=O)OC)C(C)(C)CC1=O (stereo not shown) | 5.64%

Row | Compound | hERG current change (%, negative = inhibition) at 1uM
45 | COC(=O)c1cc(CNC(=O)c2ccccc2OCc2c(C)noc2C)ccc1OC | -16.3%
46 | COc1ccc(/C=N/OCC(=O)N(Cc2ccccc2)c2ccccc2C(=O)O)cc1 | 3.58%
47 | O=C(O)C1CC=CCC1C(=O)N1CCCC1 (stereo not shown) | -1.33%
48 | CC(=O)NC(=S)Nc1ccccc1N1CCN(C(=O)c2ccccc2)CC1 | 10.6%
49 | COc1ccc(OC)c(NC(=O)c2cc(S(=O)(=O)N(C)C)ccc2N2CCCC2)c1 | -18.1%
50 | COc1ccc(CN2CCNC(=O)C2CC(=O)N(C)CCc2cnn(C)c2)c(F)c1 (stereo not shown) | 11.8%
51 | CCCNC(=O)/C=C/C(=O)O | -2.69%
52 | c1ccc(C2=NNC(c3ccccn3)=NN2)nc1 | 11.4%
53 | Cc1c(C(=O)N(Cc2ccccc2)C2CCS(=O)(=O)C2)oc2ccccc12 (stereo not shown) | 4.86%
54 | COc1cc(C2C(C#N)=C(N)Oc3n[nH]c(-c4cccnc4)c32)ccc1OCC(N)=O (stereo not shown) | 5.86%
55 | CC1=CC(C)(C)N(S(=O)(=O)c2ccc(C)cc2)c2ccccc21 | -0.428%
56 | CC(=O)Nc1ccc(NC(=O)CSC2=NS(=O)(=O)c3cc(Cl)ccc3N2)cc1 | 13.5%
57 | CCOC(=O)C(=O)Nc1ccc(OC)c(Cl)c1 | 2.62%
58 | Cn1ncc(Cl)c1C(=O)Nc1ccncc1 | 3.38%
59 | NC1=NC2(CCC(c3ccccc3)CC2)n2c(nc3ccccc32)N1 (stereo not shown) | -1.84%
60 | CC(=O)NCCn1c(SCc2cccc([N+](=O)[O-])c2)nc2ccccc2c1=O | 12.8%
61 | Cc1c(CNC(=O)c2nn3c(c2Cl)NC(c2ccccc2)CC3C(F)(F)F)cnn1C (stereo not shown) | 11.9%
62 | COc1cccc(CNc2ccc(F)c(Cl)c2)c1 | 12.5%
63 | CCCn1c(C)cc(-c2csc(N)n2)c1C.Cl | 11.3%
64 | Cn1cc(S(=O)(=O)c2ccccc2)c(=O)c2cc(F)c(N3CCOCC3)cc21 | 1.86%
65 | Cc1onc(-c2ccccc2)c1C(=O)N/N=C/c1ccc([N+](=O)[O-])s1 | 2.27%
66 | COC(=O)C1(CC2CC(c3cccc(Br)c3)=NO2)CCN(C(=O)OC(C)(C)C)CC1 (stereo not shown) | 3.69%

Row | Compound | hERG current change (%, negative = inhibition) at 1uM
67 | CC(=O)N(CCCCl)C(C#N)c1ccccc1 (stereo not shown) | 13.8%
68 | Cc1ccc(C)c(Cc2c(C)nc(C)[nH]c2=O)c1 | 12.9%
69 | Cc1c(Cl)cccc1NC(=S)N1CCN(C(=O)c2ccco2)CC1 | 12.2%
70 | CCCCCCCCc1nnc(N)s1 | -0.427%
71 | CCOc1cc(/C=C/c2ccc3cccc([N+](=O)[O-])c3n2)cc(Cl)c1O | 12.4%
72 | CC(=O)C1CCC2C3CCC4=CC(=O)CC[C@]4(C)[C@@]3(F)C(O)C[C@]12C (stereo partly shown) | 15.9%
73 | NS(=O)(=O)c1cccnc1Nc1cccc(C(F)(F)F)c1 | 5.76%
74 | O=C(Nc1cc(Cl)ccc1Cl)c1ccc(-c2ccccc2)cc1 | 1.57%
75 | COc1ccc(C(C)C)cc1S(=O)(=O)N1CCC(C(=O)N2CCN(C)CC2)CC1 | 14.8%
76 | CN(C)c1nc(NCc2ccccc2)nc(N/N=C/c2ccccc2F)n1.Cl | 19.3%
77 | CSc1nnc(CCCCCCCCc2nnc(SC)o2)o1 | 11.1%
78 | CC12CC3(C)CC(C)(C1)CC(C(=O)NCc1ccccn1)(C2)C3 | 6.5%
79 | COc1cccc(CNC(=O)CCC2CCCN(c3cc(C)nc(N4CCCC4)n3)C2)c1 (stereo not shown) | -74%
80 | O=C(CSc1nnc(C2COc3ccccc3O2)o1)N1CCCc2ccccc21 (stereo not shown) | 11%
81 | COc1ccc(OC)c(CCNC(=O)c2ccc(CS(=O)Cc3cccc(Cl)c3)o2)c1 (stereo not shown) | -4.05%
82 | CN1c2ccccc2C(C)(C)C12CC(c1cccc(S(=O)(=O)N3CCCC3)c1)=NO2 (stereo not shown) | 9.46%
83 | O=C(COC(=O)c1ccc(Cl)nc1)NCCNC(=O)COC(=O)c1ccc(Cl)nc1 | 6.44%
84 | Cc1cccc(-c2n[nH]c(=S)n2/N=C/c2ccc(C)s2)c1 | 3.68%
85 | C[C@@H](O)CC#Cc1ccc2oc(=O)c(-n3cc(-c4ccsc4)nn3)cc2c1 | 12.4%
86 | Cn1c(-c2ccc3c(c2)OCO3)c(C(=O)O)c(=O)c2ccccc21 | 9.83%
87 | CCOC(=O)c1c(NC(=S)NCC2CCCO2)sc(C)c1C (stereo not shown) | 17.4%
88 | O=C(CN1C(=O)/C(=C/c2ccco2)SC1=S)Nc1ccc(O)c(C(=O)O)c1 | 13.1%
